44 sequences from the supplement of paper PMC11417369 can be followed below.

± gives the standard deviation of the averaged measurements. The list shows a part of the results.

For the assay, the system named is PfAP2-EXP AP2 domain (GST-tagged). Description: gcPBM binding intensity (ln(normalized median fluorescence intensity)); higher = stronger DNA binding. In outline: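 After 1 h on an Agilent 4 × 180k array of primer-extended double-stranded 36-bp intergenic genomic probes and negative controls, bound GST-tagged P. falciparum DNA-binding domains were detected with Alexa488 anti-GST antibody and scanned at 488 nm. The domains had been expressed in E. coli, and binding took place in 1× PBS with 1% milk, 0.2 mg/ml BSA, 0.5% salmon testes DNA and 0.03% Triton X-100. Binding intensity is the highest Masliner-normalised natural-log median intensity across replicate spots of either probe orientation.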
In the case of “TTAAATAGATAAACTAAACACACAAAAAAAAAAAAA [CACACA_site8308]”, the “gcPBM binding intensity (ln)” value amounted to 8.38 ± 0.46.

“TAAATACTAATATGTACACACATATAGATATAGATT [CACACA_site7247]”: the “gcPBM binding intensity (ln)” value stood at 8.21 ± 0.3.

Regarding “GAATAAGATAGATATACACACCATTATAAATATAAA [CACACA_site5392]”, the “gcPBM binding intensity (ln)” value turned out to be 8.5 ± 0.51.

“GCTAAAAGTATATGCACACACATATATATGCACATA [CACACA_site1635]”: the “gcPBM binding intensity (ln)” value was determined as 8.87 ± 0.028.

Regarding TTTTGTACTTCATGCGTGCACAGAAATATATTATAT, the “gcPBM binding intensity (ln)” value turned out to be 9.245 ± 0.078.

As for “GCTTTTGTCATGTGCACACACGTATATATTATATAT [CACACA_site6146]”, the “gcPBM binding intensity (ln)” value turned out to be 9.45 ± 0.35.

For the sequence “ATTTATATTTGTATTTGTACTTATATTTATATTTAT [XGTACX_site1540]”, the “gcPBM binding intensity (ln)” value worked out at 8.66 ± 0.47.

As to AAAAAGGTTAAGGTAGTGCATAATAAAGAATATTAA, the “gcPBM binding intensity (ln)” value turned out to be 8.78 ± 0.28.

Turning to “ATCATTCTTCATTTGTCACACATGATAAAAATATAT [CACACA_site4953]”, the “gcPBM binding intensity (ln)” value came to 8.84 ± 0.45.

For “CTATTTTGGATGTGTACACATATATATATTTATATT [CACACA_site5706]”, the “gcPBM binding intensity (ln)” value turned out to be 8.93 ± 0.11.

For the sequence “CTATTATAATATTTTACACACCATGTAAAATATATA [CACACA_site3206]”, the “gcPBM binding intensity (ln)” value stood at 8.39 ± 0.38.

Consider “CATTAACATTTTATTACACACAATAATTTATAAGTA [CACACA_site4083]”, for which the “gcPBM binding intensity (ln)” value worked out at 8.29 ± 0.38.

For the sequence “TTTTTTAAGTAATGAAATGATTTTCTTATAGAATAA [GTGCAC_negctrl_site395]”, the “gcPBM binding intensity (ln)” value came to 7.84 ± 0.47.

Regarding “ATATATATATATATATGTACATATTTCTCCATTTTT [XGTACX_site2869]”, the “gcPBM binding intensity (ln)” value came out at 10.1 ± 0.23.

With “GTTTTTTATAATTGTAGTACAAGAAGATATTTTTAT [XGTACX_site5443]”, the “gcPBM binding intensity (ln)” value is 8.55 ± 0.35.

Regarding “TGCAATTGTAAAGGCGCACACATATATATATATATA [CACACA_site4894]”, the “gcPBM binding intensity (ln)” value was found to be 10.1 ± 0.34.

Turning to “GCATTGTCCATGCGCACACACTACTAGAATAATATG [CACACA_site5932]”, the “gcPBM binding intensity (ln)” value is 8.68 ± 0.3.

“AAACCGTGGGAGCACACACACACACCGACACATATA [CACACA_site4338]”: the “gcPBM binding intensity (ln)” value is 8.68 ± 0.51.

For the sequence “CATATTTTTATAAATTGTACGTATATTATATATATA [XGTACX_site1816]”, the “gcPBM binding intensity (ln)” value amounted to 8.775 ± 0.035.

For “CCATCTAAACACAACTCGAGTTGGATGTGTGAACTT [XGTACX_negctrl_site83]”, the “gcPBM binding intensity (ln)” value came to 8.57 ± 0.45.

On to “AATTAATGGGTACATACACACATATATACCTACATA [CACACA_site4572]”, for which the “gcPBM binding intensity (ln)” value is 8.38 ± 0.32.

Consider “ATCAAAAGAAAACACACACACATACAGATATATATA [CACACA_site5974]”, for which the “gcPBM binding intensity (ln)” value is 8.73 ± 0.43.

In the case of “TCCATTTATAAATTAGCATGCAATCTATGTCTGATA [TGCATGCA_site1045]”, the “gcPBM binding intensity (ln)” value is 9.09 ± 0.29.

Regarding “ATATATCAATATAAAAGTACAAACAAAAAATAATCA [XGTACX_site7559]”, the “gcPBM binding intensity (ln)” value was determined as 8.87 ± 0.38.

For “GATATATACTCCATCACACACCAAAAAGAAAAAAGA [CACACA_site7242]”, the “gcPBM binding intensity (ln)” value came out at 8.64 ± 0.58.

In the case of “AGCAACCTGAAAAAATTACTCTTTCTTAAACAAATT [XGTACX_negctrl_site266]”, the “gcPBM binding intensity (ln)” value was determined as 7.99 ± 0.45.

Turning to “ATACAAGAATTAAACACACACAAAATATAAATTCTT [CACACA_site3005]”, the “gcPBM binding intensity (ln)” value came out at 8.71 ± 0.45.

Turning to “CACAGACACGGACACACACACACACCCATATATATA [CACACA_site4354]”, the “gcPBM binding intensity (ln)” value worked out at 8.78 ± 0.31.

On to “TTAAGGATTAAGGTGTGTACATATAAATATTATATA [XGTACX_site7532]”, for which the “gcPBM binding intensity (ln)” value was 8.51 ± 0.31.

Take “ACCTGTAAAAATGTTTATATATATATATATATATAT [CACACA_negctrl_site1500]”: the “gcPBM binding intensity (ln)” value was 10.3 ± 0.37.

For the sequence “TGTTTATTCTTTAAATATTATTCAAATACTACAAGT [CACACA_negctrl_site746]”, the “gcPBM binding intensity (ln)” value was 8.16 ± 0.4.

With “AAAAAAAAAAAAAATTGTACATAATAAAAATATGGA [XGTACX_site3189]”, the “gcPBM binding intensity (ln)” value was 8.4 ± 0.46.

“TATATATATAAGTGCACACTGAACCAAGAAAATTAT [CACACA_site3008]”: the “gcPBM binding intensity (ln)” value was determined as 9.26 ± 0.28.

Turning to “CGGCACATTATATATACACACATATAAATAAATACA [CACACA_site4477]”, the “gcPBM binding intensity (ln)” value was 8.6 ± 0.38.

As for “GGATTGATAAGTGGTACACACATATAGATTATAGAT [CACACA_site7367]”, the “gcPBM binding intensity (ln)” value stood at 8.76 ± 0.4.

With “ATTTATATAAAGAATGTACACACAGAAATGCACCCA [CACACA_site8715]”, the “gcPBM binding intensity (ln)” value amounted to 9.2 ± 0.2.

“AATATTAAATGAAAAAGTACAAACAGTCCTATATTA [XGTACX_site1926]”: the “gcPBM binding intensity (ln)” value was found to be 8.23 ± 0.2.

For the sequence “AAAAAAAAAAAACATACACACAAATAAATACATACA [CACACA_site6073]”, the “gcPBM binding intensity (ln)” value came to 8.61 ± 0.63.

Regarding “TAAATATATATATGTGTGCACTTCTTCATTTTAATA [GTGCAC_site9537]”, the “gcPBM binding intensity (ln)” value stood at 9.09 ± 0.26.

As for “CGTATGCACAAATTATGTACTTATATATATATATAT [XGTACX_site2348]”, the “gcPBM binding intensity (ln)” value came to 10.1 ± 0.36.

For the sequence “TATTCGAAAATTATTCAAATTATCTAACATATTATT [TGCATGCA_negctrl_site70]”, the “gcPBM binding intensity (ln)” value turned out to be 8.09 ± 0.4.

On to “AAAAATAAAATAATATGTACATATATAATATATATA [XGTACX_site4786]”, for which the “gcPBM binding intensity (ln)” value stood at 8.67 ± 0.13.

“AATTGGAAACAACCAAAAAAATTAAAGTTGTATCCT [CACACA_negctrl_site565]”: the “gcPBM binding intensity (ln)” value is 8.23 ± 0.37.

“TAATTTTTTAGACACACACACATATAAATATAAATA [CACACA_site6195]”: the “gcPBM binding intensity (ln)” value was found to be 8.74 ± 0.3.
